The test system of the data set is male wistar rats. Nature of the data set: Toxicity test, oral administration for four days. Particulars: 100 mg/kg/day orally for four days.

The record followed here is patent EP0992240A1, “THERAPEUTIC AGENT FOR ERECTION FAILURE” (MOCHIDA PHARMACEUTICAL CO., LTD., priority 1997, dated 1998).

For the molecule `O=c1c(Cc2cccnc2)cn2c3cc(Br)ccc3c3cc(O)cc1c32` [Example 31, 9-bromo-2-hydroxy-5-(3-pyridylmethyl)-4H-pyrido[3,2,1-jk]carbazol-4-one], the “abnormal change in body weight and general symptoms” value is given as “no abnormal change”. In addition, under “until the next morning of the completion of the administration”, the dead case result was “no dead case”.
